Assay results reported in the supplement of paper PMC3334620.
The full ranking holds about 33,000 sequences; the median of “E-score (-0.5 to 0.5)” is about -0.04, and the highest 2% start at about 0.36. The list shows a part of the results.

These sequences were tested against T1, Hmlalpha2 (UniProt P0CY09) (assay: PBM E-score (8-mer binding enrichment) (E-score (-0.5 to 0.5)); higher = stronger / more preferred TF binding; most listed sequences are background and not binding sites). Details: protein concentration: 200 nM; construct: GST-full length.
T1 sequence: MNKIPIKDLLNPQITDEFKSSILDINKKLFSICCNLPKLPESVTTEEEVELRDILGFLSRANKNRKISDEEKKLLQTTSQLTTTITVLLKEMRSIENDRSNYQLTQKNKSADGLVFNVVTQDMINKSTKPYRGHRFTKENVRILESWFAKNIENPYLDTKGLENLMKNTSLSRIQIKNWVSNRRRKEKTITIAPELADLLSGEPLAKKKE
Outline: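 Full-length yeast transcription factors or their DNA-binding domains, GST-tagged and expressed with PURExpress, were applied at about 100-200 nM to universal all-10-mer Agilent arrays. These arrays had been made double-stranded by primer extension on fresh or once-stripped slides. Detection used fluorescent anti-GST, normalisation used masliner, and E-scores for ungapped eight-base words pooled with reverse complements came from the Universal PBM Analysis Suite.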

Sequence	PBM E-score
ACGCGGAG	0.0752
GACCAGAC	-0.157
GCGCGCCC	-0.278
GCGCACTA	-0.166
AAGTGAAA	0.0896
ACTATTGC	0.0154
CTACAACA	0.283
ATAGACGA	0.132
CCATGAAG	-0.0572
CTAGCCCA	-0.216
AGGACCTG	-0.245
CGCTCACA	-0.148
AGTTCAGA	-0.0654
ATCAGCTA	-0.0578
GAAACATA	0.192
AGGATGTC	0.0843
CGATGACA	0.181
CTGGCGGA	-0.213
GTGCGGCA	-0.231
ACAATAGC	0.1
CCGTTTGA	-0.0311
CCGTCTGA	-0.211
ACTTAAGA	0.112
CCGCTCAC	-0.38
GCTTACAC	0.362

Sequence	PBM E-score
ATCCTGCC	-0.273
ACGTTGGG	0.0081
GGAACAAC	-0.00609
TCAGGAGA	-0.123
CCGTAACG	-0.203
ACGGTATA	-0.104
GAGGTAAA	0.228
GAGGGAAC	-0.165
AACGTGTC	0.263
GGAGAGCC	-0.176
CCGAGGAC	-0.123
GAAACGTA	0.0718
GTGGCGAA	0.105
ACAGTCGT	-0.114
GAACAGCA	0.148
GCTCAACA	0.257
AAGCGACT	-0.0487
ATGACAAC	0.251
AAAATTCC	-0.0102
GATGCGAC	-0.26
GTTTCCCA	-0.0865
ACTTGCCT	-0.0609
CACGAAGC	0.025
CGCGGCAC	-0.0823
ACGGGGTA	-0.142

Sequence	PBM E-score
GCATTTGA	0.0634
AGTTCCGA	-0.111
ACTTCGTC	-0.037
CCGACTTC	-0.251
TGCATAAA	0.169
AGGACCTC	-0.0898
GGTTGTCA	0.107
AAGACTCT	-0.0145
CTAGGACA	0.0398
AAGCTTCA	-0.12
ACAATACT	0.216
CTTGCTGA	-0.119
CACCGCCC	-0.149
CCTATAGG	-0.299
ACACGGAT	0.36
CGCGAGTC	-0.171
CGAGTGTA	0.149
GCAAACCC	-0.0245
AAACGGGT	0.153
GTAAGGGA	-0.0355
CTTAATCA	0.0319
AGCAGCGA	0.0529
AACGTTGC	0.0955
ACGACATA	0.134
GATCAATC	-0.166

Sequence	PBM E-score
GCCAACGC	0.0928
AAACAGGA	0.149
CCGTAGGA	-0.273
CAGCGCTG	0.111
CTACTAGA	-0.0423
CCCTTTAG	-0.261
ATCTCTCC	-0.107
TAATGCAA	0.0682
AAGACGAA	0.0103
CTAACCAG	0.0246
CAAATATG	0.134
AAATAAAC	0.149
ATACGAAG	0.0224
CCGACAGC	-0.203
AAGTCTGT	0.18
ACCGTTTC	0.0108
CTACCGTA	0.0168
GACCGCCC	-0.244
CGGGTTGC	-0.105
CTACTCCC	-0.112
ATGATATA	0.048
AGGTGTAT	0.0902
ACGGTTAC	0.15
ATAGCACA	0.112
CTTGGGAC	-0.351

Sequence	PBM E-score
CGTAAACG	0.221
AGAGTCTC	-0.308
CCGCAATC	-0.227
AGGGGATA	-0.233
CCTTAACA	0.291
ATTTAGTG	-0.0187
TAATAGCA	0.0831
AGACGAAT	-0.0523
ACTGTTGG	-0.203
GCCCCCGA	-0.405
ATTTCTTA	0.124
ACCGATCT	-0.148
ATCTTCCG	-0.0113
AAGCATCG	-0.0225
CGATGAAG	-0.00363
ATACAAAT	0.262
GGCCTCCA	-0.198
GTTGATAA	0.307
GAGAATGA	-0.0686
ACGGCTTC	-0.16
CTGCAGCC	-0.141
CGACCACG	0.0469
GTCCGCGA	-0.175
ATCGCCGC	-0.0645
AAGGTGCC	-0.157

Sequence	PBM E-score
AGTATGGC	-0.0371
CTGACAAC	0.0926
ATCAGGAC	-0.205
AGGTTTCG	-0.185
AAGCTGAA	-0.0116
GGAGCACC	-0.351
ATCGAGTG	0.12
ACTTGCCG	-0.0643
GTGTGACA	0.0967
GGACGGCA	0.00374
CGGATCGC	-0.185
AACTTTCT	-0.0947
ATTTCTCC	-0.11
ATAGTAGC	-0.0215
CCATTTTA	0.148
GGAAGGCA	-0.302
AATGCGCC	-0.0407
CGTGGCCA	-0.103
AACGTATA	0.227
CGCATGAG	-0.222
ATTACAAT	0.385
ATTCGTCG	0.017
TGGTGTAA	0.329
CACTCCCA	-0.129
AACTAAAA	0.159

Sequence	PBM E-score
AAACTACG	0.0854
CGGAAAAC	0.128
CATAGATC	0.00885
CGTTCGAA	0.0425
CCCCTCGC	-0.363
AATGCAGA	0.0193
GGACTACA	0.161
GCTGATAA	0.154
ATGGGTAC	0.114
TAAAGCGA	-0.0154
AGTTTAGG	-0.0184
AACCATCT	-0.0719
CACGATGC	0.0908
GAGCGGTA	-0.0188
CTTCGTCC	-0.187
ACAAAAGA	0.115
CGTCCGTC	-0.33
AGTCCGCA	-0.162
TCTTGTCA	0.219
TAAATTTA	0.33
CGATAATA	-0.0285
GATCACTA	-0.0729
